According to the supplement of paper PMC10126150:
Sequences with one replicate were seen in a single cluster, so their values are uncertain.

Test system: ATP
Assay: switch fluorescence ratio, 500 uM ATP over buffer (Cy3 cluster intensity, sum of 5 cycles each) (fold (ratio)); higher = stronger signal-on switching upon ATP binding; sequences stand for … in TCGTCGGCAGCGTCAGATGTGTATAAGAGACAGTTTTTTTTTTTTTTTTTTTTTTTTT…TC
Details: aptamer strand: ATP DNA aptamer (quencher-CACCTGGGGGAGTATTGCGGAGGAAGG + anchor), 100 nM annealed; ATP concentration: 500 uM; one replicate
Procedure, shortened: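 Imaging in selection buffer was followed by imaging after 15 min with 500 uM ATP at 22 °C, for Cy3-labelled switching-strand clusters annealed to 100 nM quencher-labelled ATP aptamer on a modified Illumina MiSeq flow-cell. Five of these buffer/ATP cycles ran, separated by NaOH stripping and re-annealing. The fluorescence ratio per cluster is summed target-cycle over summed buffer-cycle Cy3 intensity, averaged per switch-domain sequence; clusters outside 100-1000 RFU were removed.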
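Also: ATP exposure 15 min at 22 °C before imaging.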

| Sequence | switch fluorescence ratio |
| --- | --- |
| AATATTCCTT | 1.08 |
| AATATTTT | 1.01 |
| AATCAAGAAA | 0.943 |
| AATCAATAGG | 1.03 |
| AATCAATGCT | 1.1 |
| AATCACCGAA | 1 |
| AATCATACGT | 1.02 |
| AATCATATTC | 1.04 |
| AATCATCTTC | 0.993 |
| AATCATGCTT | 0.979 |
| AATCCACAGA | 1.04 |
| AATCCATGAG | 0.983 |
| AATCCCTT | 1.05 |
| AATCCGAATA | 1.34 |
| AATCCGGAGA | 1.05 |
| AATCCGTGAG | 1.02 |
| AATCCTTAGA | 0.99 |
| AATCGAGATG | 0.973 |
| AATCGAGCTT | 1.03 |
| AATCGGAGAA | 0.991 |
| AATCGTCA | 1.05 |
| AATCGTCGCT | 0.973 |
| AATCTAGTGG | 1 |
| AATCTCCCAC | 1.14 |
| AATCTGGCTA | 0.984 |
| AATCTTAGTC | 0.989 |

| Sequence | switch fluorescence ratio |
| --- | --- |
| AATCTTGACG | 1.01 |
| AATCTTTACT | 1.02 |
| AATCTTTGGG | 1.02 |
| AATGAAATTA | 0.97 |
| AATGACGGTT | 0.963 |
| AATGAGAGCT | 0.986 |
| AATGAGGACT | 0.955 |
| AATGAGGAGT | 0.996 |
| AATGAGTCGC | 1.04 |
| AATGAGTTCG | 1 |
| AATGCACGGT | 1.03 |
| AATGCAGGG | 0.99 |
| AATGCAGTGA | 1 |
| AATGCCAGTC | 0.988 |
| AATGCCATA | 1.02 |
| AATGCGACCC | 1.04 |
| AATGCGACTT | 1 |
| AATGCGATAA | 1.31 |
| AATGCGGCCT | 1 |
| AATGCGTCAG | 0.988 |
| AATGCTACGT | 1.03 |
| AATGCTCTGT | 0.999 |
| AATGCTTGGA | 1.02 |
| AATGGAAAGG | 1.01 |
| AATGGACAA | 1 |
| AATGGACACA | 1 |

| Sequence | switch fluorescence ratio |
| --- | --- |
| AATGGACCTG | 0.999 |
| AATGGAGTCC | 0.986 |
| AATGGCGAAG | 0.987 |
| AATGGGAGTA | 1 |
| AATGGGCGGC | 1.01 |
| AATGGGCTT | 0.97 |
| AATGGGTA | 1 |
| AATGGGTGTT | 0.991 |
| AATGGTCTGC | 0.954 |
| AATGGTGACA | 0.98 |
| AATGTAACAA | 0.984 |
| AATGTAGAGG | 1.02 |
| AATGTAGATG | 1.02 |
| AATGTAGTAG | 0.99 |
| AATGTATAGA | 0.992 |
| AATGTCAAAA | 0.98 |
| AATGTGCAAG | 0.981 |
| AATGTGGGC | 1.03 |
| AATGTGTACG | 1.01 |
| AATGTTA | 0.999 |
| AATTACTCAT | 1.01 |
| AATTAGATTG | 1.01 |
| AATTAGCGGT | 1.04 |
| AATTAGTGAT | 1.01 |
| AATTATAGGA | 1.02 |
| AATTATTGTC | 1.05 |

| Sequence | switch fluorescence ratio |
| --- | --- |
| AATTCAAGAT | 0.985 |
| AATTCACCTT | 1.13 |
| AATTCATGGG | 0.99 |
| AATTCATTCG | 1.03 |
| AATTCCCATG | 1.03 |
| AATTCCGTGG | 0.955 |
| AATTCCTGCA | 1.1 |
| AATTCGACTA | 0.959 |
| AATTCGTGAG | 0.99 |
| AATTCTGCTG | 0.931 |
| AATTGACAGG | 1.06 |
| AATTGCATTG | 1.03 |
| AATTGCCCTC | 1.01 |
| AATTGCCGAA | 1 |
| AATTGCGACA | 1.03 |
| AATTGGCATG | 1.03 |
| AATTGGGAAC | 0.979 |
| AATTGGGCGT | 1.01 |
| AATTGGGTGT | 1.05 |
| AATTGGTGAT | 0.975 |
| AATTGTCGCA | 0.995 |
| AATTGTGACT | 1.03 |
| AATTGTTGG | 1.09 |
| AATTTCCTCC | 2.19 |
| AATTTGTCTG | 0.986 |
| AATTTTACT | 1.01 |

| Sequence | switch fluorescence ratio |
| --- | --- |
| ACAAAACGGT | 1.06 |
| ACAAAGAGT | 1 |
| ACAAAGGCGA | 1.06 |
| ACAAATACGC | 1.1 |
| ACAAATTGAC | 1.05 |
| ACAACGTCGG | 0.983 |
| ACAACGTG | 0.989 |
| ACAACTGCAA | 1.39 |
| ACAAGATCCG | 1.04 |
| ACAAGATTAG | 1.03 |
| ACAAGGAAGC | 1.15 |
| ACAAGGAGTT | 0.974 |
| ACAAGGATGC | 1.03 |
| ACAAGGGGCC | 1.06 |
| ACAAGGGTTG | 1.03 |
| ACAAGGTTCA | 1.02 |
| ACAAGGTTCG | 1.01 |
| ACAAGTCTCA | 1.01 |
| ACAAGTTCTA | 1.06 |
| ACAAGTTTCG | 0.994 |
| ACAATCATTC | 1.01 |
| ACAATCGGGC | 1.01 |
| ACAATGCTT | 1.05 |
| ACAATGGCTC | 1.05 |
| ACAATTACCC | 1.17 |
| ACAATTAT | 0.949 |

| Sequence | switch fluorescence ratio |
| --- | --- |
| ACAATTGCTT | 0.984 |
| ACACAAGAGG | 1.02 |
| ACACAAGTGG | 0.964 |
| ACACAGAAGA | 1.04 |
| ACACAGTCGT | 1.03 |
| ACACATACAT | 1.26 |
| ACACATGGGC | 1.02 |
| ACACCTTTTC | 2.54 |
| ACACGAAATC | 1.33 |
| ACACGGCTAC | 1.91 |
| ACACGTCAGC | 1.08 |
| ACACGTGCGC | 1.04 |
| ACACGTGCGG | 0.996 |
| ACACGTGTAA | 1.02 |
| ACACTAACAG | 1.07 |
| ACACTCAATA | 1.11 |
| ACACTTCCTA | 1.21 |
| ACACTTGTAC | 1.2 |
| ACACTTTCAT | 0.999 |
| ACACTTTGTC | 1.02 |
| ACAGAAATTA | 0.99 |
| ACAGACACTT | 1.08 |
| ACAGACCTTT | 1.15 |
| ACAGACTTCG | 1.03 |
| ACAGATGCTG | 1.03 |
| ACAGATGTCT | 0.992 |

| Sequence | switch fluorescence ratio |
| --- | --- |
| ACAGATTTA | 1 |
| ACAGCAGTG | 1 |
| ACAGCCACTC | 1.19 |
| ACAGCGGGCC | 1.04 |
| ACAGCGTCTT | 0.969 |
| ACAGCTACGC | 1.06 |
| ACAGCTCTGC | 1.07 |
| ACAGGAGTGA | 0.964 |
| ACAGGATAT | 1.02 |
| ACAGGCCCGA | 1.01 |
| ACAGGGGCAC | 1.14 |
| ACAGGGGTTC | 1.02 |
| ACAGGTAGCA | 1.03 |
| ACAGGTATG | 0.995 |
| ACAGGTGTCG | 0.962 |
| ACAGTAGCGA | 1.04 |
| ACAGTCTGAT | 0.944 |
| ACAGTGGACC | 1.08 |
| ACAGTGTAGA | 1.03 |
| ACAGTTGGTC | 1.02 |
| ACAGTTGGTG | 1.03 |
| ACAGTTTCTT | 0.965 |
| ACAGTTTGAA | 1.02 |
| ACAGTTTTA | 1.04 |
| ACATAAGGAC | 1.01 |
| ACATACCGC | 1.29 |

| Sequence | switch fluorescence ratio |
| --- | --- |
| ACATACGGCG | 1.19 |
| ACATATATTG | 0.975 |
| ACATATGGAA | 1.06 |
| ACATATTCGA | 1.02 |
| ACATATTGCT | 1.06 |
| ACATCATCGA | 1.03 |
| ACATCATCTA | 1.03 |
| ACATCCACT | 1.13 |
| ACATCCTGGT | 0.998 |
| ACATGAATCG | 0.986 |
| ACATGAGGCA | 1.01 |
| ACATGAGGG | 1 |
| ACATGATTCT | 1.02 |
| ACATGCAAAG | 1.03 |
| ACATGGATCC | 1 |
| ACATGGCTG | 1.06 |
| ACATGGGTGA | 0.993 |
| ACATGTGCTG | 1.07 |
| ACATGTGTGG | 1.02 |
